PubChem BioAssay AID1460 (National Center for Advancing Translational Sciences (NCATS), 2008)
About 5,800 (2.1%) of roughly 270,000 compounds were called active. The shares of active, inactive and inconclusive entries below differ from those in the screen. Calls come from the whole dose curve; as a rule, active = well fitted inhibition curve with a large enough effect; inconclusive = small, poorly fitted or top-dose-only effect; inactive = flat fitted curve, though single readings scatter. Potencies beside an inconclusive call are fits to weak or partial responses and may not hold up.

What follows are compounds tested against Microtubule-associated protein tau (Homo sapiens) (UniProt P10636) (assay: qHTS for Inhibitors of Tau Fibril Formation, Thioflavin T Binding). Settings: recombinant tau K18 P301L (four-repeat tau fragment), heparin-induced fibrillization, ThT fluorescence; series mostly up to 57.4 µM; activity, negative = inhibition: at the top concentration.
Chain of UniProt P10636 (P10636 whole entry, looked up, the tested form may be a part): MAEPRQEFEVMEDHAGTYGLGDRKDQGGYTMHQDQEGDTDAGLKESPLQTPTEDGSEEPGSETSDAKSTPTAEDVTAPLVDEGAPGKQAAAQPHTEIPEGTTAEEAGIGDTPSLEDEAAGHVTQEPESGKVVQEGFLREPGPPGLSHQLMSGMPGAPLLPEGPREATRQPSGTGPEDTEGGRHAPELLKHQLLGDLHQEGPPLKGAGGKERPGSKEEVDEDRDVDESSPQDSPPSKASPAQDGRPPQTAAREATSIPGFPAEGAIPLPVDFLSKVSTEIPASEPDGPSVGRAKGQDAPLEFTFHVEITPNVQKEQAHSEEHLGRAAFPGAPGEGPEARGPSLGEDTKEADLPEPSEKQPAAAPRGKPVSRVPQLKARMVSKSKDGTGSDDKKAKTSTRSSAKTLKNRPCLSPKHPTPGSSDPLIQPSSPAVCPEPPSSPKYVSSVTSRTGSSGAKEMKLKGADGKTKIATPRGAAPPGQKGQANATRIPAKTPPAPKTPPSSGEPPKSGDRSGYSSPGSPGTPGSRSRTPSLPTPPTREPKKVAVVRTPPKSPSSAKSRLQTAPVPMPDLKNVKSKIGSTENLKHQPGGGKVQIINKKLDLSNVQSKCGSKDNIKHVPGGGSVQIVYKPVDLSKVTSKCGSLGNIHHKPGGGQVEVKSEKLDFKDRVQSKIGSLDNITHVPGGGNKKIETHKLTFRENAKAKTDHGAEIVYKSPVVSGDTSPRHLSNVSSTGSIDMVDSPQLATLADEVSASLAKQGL
Procedure, shortened: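 Tau K18 P301L fragment (15 uM unlabeled plus 0.24 uM Alexa 594-labeled) in 100 mM sodium acetate pH 7 with compound, fibrillization induced by 20 uM heparin for 6 hr at 37 C. Thioflavin T (30 uM) added, fluorescence read after 1 hr (ex 450, em 510 nm).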
% is set by controls: 0 for no effect and ±100 for the full control effect; potency is the fitted concentration of half-maximal effect; tags give direction and shape of the fitted curve.
Note: nearly all actives have a fitted effect of over 55% in size.

Compound	Potency	activity, negative = inhibition
Cc1ccccc1C(=O)N1CCN(c2ccc([N+](=O)[O-])c(NCc3ccco3)c2)CC1	inconclusive: 10 µM [inhibitor, partial curve]	
Cc1cccc(OCc2nnc(SCC(=O)N3CCN(c4ccccc4)CC3)o2)c1C	inconclusive: 2.51 µM [inhibitor, full curve]	
Cc1ccc(/C=C2/NC(=O)N(Cc3ccccc3)C2=O)o1	active: 31.6 µM	
Cc1cc(C)n(-c2nc3ccccc3nc2N2CCN(c3cccc(C)c3C)CC2)n1	inconclusive: 12.6 µM [inhibitor, partial curve]	
CCOc1ccc(NC(=O)NCc2ccc3c(c2)CCN3C(C)=O)cc1	inconclusive: 5.62 µM [inhibitor, partial curve]	
CCOC(=O)N1CCc2c(sc3c2C(=O)NC(c2cc(OC)c(O)c(OC)c2)N3)C1 (centres undefined)	active: 11.2 µM	
CCOc1ccc(/C=N/NC(=O)Cc2csc(Nc3cccc(C(F)(F)F)c3)n2)cc1	inconclusive: 5.01 µM [inhibitor, single point]	
COc1cc2c(cc1OC)CN(C(=O)c1ccco1)CC2	inconclusive: 35.5 µM [inhibitor, single point]	
Cc1cc(C(=O)CSc2nnnn2-c2ccccc2)c(C)n1-c1ccc2c(c1)OCO2	inconclusive: 20 µM [inhibitor, single point]	
COc1cc(C(=O)NCCNC(=O)C2CCCNC2=O)cc(OC)c1OC (centres undefined)		inactive: -2.92%
COc1ccccc1NS(=O)(=O)c1ccc(C(N)=O)cc1		inactive: -9.56%
Cc1ccc(-n2nc(C)c(C3C(C#N)=C(N)OC4=C3C(=O)CCC4)c2Cl)cc1 (centres undefined)	inconclusive: 39.8 µM [inhibitor, single point]	
Cc1ccc(NCc2cccn2-c2nnc(N3CCC(C(=O)NCCc4ccccc4)CC3)s2)cc1	inconclusive: 11.2 µM [inhibitor, partial curve]	
O=C1CC(Nc2ccccc2)C(=O)N1c1ccc(N2CCOCC2)cc1 (centres undefined)	inconclusive: 15.8 µM [inhibitor, single point]	
CC/C=C/C(=O)N1CC2(CC(c3cccc(NC(=O)CC)c3)=NO2)C[C@H]1C(N)=O (some centres undefined)	inconclusive: 17.8 µM [inhibitor, single point]	
O=C(CCc1nc(-c2ccc(Cl)cc2)no1)NCC1CCCO1 (centres undefined)		inactive: -0.437%
CCOc1ccc(NC(=O)Nc2cc(C(C)C)c(O)cc2C)cc1	inconclusive: 28.2 µM [inhibitor, partial curve]	
CCOc1ccc(C(=O)Nc2ccc(-c3nc4cc(C(C)C)ccc4o3)cc2)cc1Cl	inconclusive: 0.562 µM [inhibitor, full curve, poor fit]	
CCN1C(=O)c2cccc3c(S(=O)(=O)Nc4ccccn4)ccc1c23		inactive: -7.68%
COc1ccc(C)cc1NC(=O)CSc1nnc(-c2ccc(OC)c(OC)c2)n1N	inconclusive: 15.8 µM [inhibitor, partial curve]	
COCC(=O)Nc1cc(Cl)ccc1C		inactive: -5.99%
CC1Cc2ccccc2N1C(=O)c1ccc(N2CCCCC2)c([N+](=O)[O-])c1 (centres undefined)	inconclusive: 15.8 µM [inhibitor, partial curve, poor fit]	

Compound	Potency	activity, negative = inhibition
O=C(Cc1sc(Nc2ccccc2)nc1-c1ccccc1)NCc1ccccn1	inconclusive: 14.1 µM [inhibitor, partial curve]	
COc1cccc(CCNC(=O)c2c(O)nc3cc(C)ccn3c2=O)c1		inactive: -14.4%
COc1ccc(-c2nc(CCNC(=O)c3cccs3)cs2)cc1OC		inactive: -13.1%
COc1ccc(OCC(=O)Sc2ccc(C)cc2)cc1	inconclusive: 17.8 µM [inhibitor, partial curve]	
C[C@H]1OC(OC2C(O)[C@@H](O)C(OC3C(O)[C@@H](O)C(O)O[C@@H]3CO)O[C@@H]2CO)[C@H](O)C(O)C1N[C@H]1C=C(CO)[C@@H](O)[C@H](O)C1O (some centres undefined)		inactive: -3.17%
CCOc1ccc(-c2csc(N)c2C(=O)OC)cc1	inconclusive: 15.8 µM [inhibitor, partial curve]	
O=C1C(Cl)=C(N2CCOCC2)C(=O)N1c1cccc(Cl)c1	active: 12.6 µM	
COc1ccc2nc(NC(=O)CSc3nc4ccccc4o3)sc2c1	inconclusive: 0.562 µM [inhibitor, full curve]	
COc1ccc(NC(=O)CSc2nc(-c3ccc(OC)cc3)[nH]c2-c2ccc(F)cc2)cc1		inactive: -9.48%
CN(C)c1ccc(CNC(=O)CCC(=O)N2Cc3ccccc3Oc3ncccc32)cc1		inactive: -13.1%
COc1ccc(OC2C=CC(C#Cc3ccc(C(C)(C)C)cc3)OC2CO)cc1 (centres undefined)	inconclusive: 3.98 µM [inhibitor, partial curve]	
Cn1c(=O)n(Cc2ccco2)c(=N)c2c3c(sc21)CCC3		inactive: -1.72%
CCOC(=O)c1nc(N2CCN(C(=O)OCC)CC2)c2c3c(sc2n1)CCCC3	inconclusive: 14.1 µM [inhibitor, partial curve, poor fit]	
C/C(CC1CC(COCC(C)C)OC1=O)=N\Nc1nc(-c2ccccc2)cs1 (centres undefined)	active: 17.8 µM	
O=C(N/N=C/c1cnc(N2CCCCC2)s1)c1ccc(Cl)cc1	inconclusive: 11.2 µM [inhibitor, partial curve]	
FC(F)(F)c1cnc(NNC(=S)Nc2ccccc2Cl)c(Cl)c1	inconclusive: 25.1 µM [inhibitor, partial curve]	
CCCCc1ccc(C(=O)Nc2ccc3nc(N(CC)CC)cc(C)c3c2)cc1	inconclusive: 3.55 µM [inhibitor, full curve]	
O=C(Nc1ccc(-c2cn3c(n2)SCC3)cc1)c1ccc2ccccc2n1	inconclusive: 2.24 µM [inhibitor, partial curve]	
COC(=O)[C@@H](O)CC[C@@H](C)Cc1c(OC)c(OC)c(C)c(OC)c1OC		inactive: -7.54%
C=CCN1C=C/C(=C\C=C(C#N)C#N)c2ccccc21	inconclusive: 0.1 µM [inhibitor, full curve, poor fit]	
Clc1ccc2c(c1)C(c1cccs1)=NNC(c1cccnc1)=N2	inconclusive: 31.6 µM [inhibitor, partial curve]	
Cc1sc(-c2ccncc2)nc1OC(=O)c1cc(Cl)cc(Cl)c1	active: 28.2 µM	
